Results from the supplement of paper PMC3334620.
Over roughly 33,000 sequences, “E-score (-0.5 to 0.5)” has its median near -0.012; the highest 2% begin near 0.27. Some of the results follow.

Target: T1, Vhr1 (UniProt P40522)
T1 sequence: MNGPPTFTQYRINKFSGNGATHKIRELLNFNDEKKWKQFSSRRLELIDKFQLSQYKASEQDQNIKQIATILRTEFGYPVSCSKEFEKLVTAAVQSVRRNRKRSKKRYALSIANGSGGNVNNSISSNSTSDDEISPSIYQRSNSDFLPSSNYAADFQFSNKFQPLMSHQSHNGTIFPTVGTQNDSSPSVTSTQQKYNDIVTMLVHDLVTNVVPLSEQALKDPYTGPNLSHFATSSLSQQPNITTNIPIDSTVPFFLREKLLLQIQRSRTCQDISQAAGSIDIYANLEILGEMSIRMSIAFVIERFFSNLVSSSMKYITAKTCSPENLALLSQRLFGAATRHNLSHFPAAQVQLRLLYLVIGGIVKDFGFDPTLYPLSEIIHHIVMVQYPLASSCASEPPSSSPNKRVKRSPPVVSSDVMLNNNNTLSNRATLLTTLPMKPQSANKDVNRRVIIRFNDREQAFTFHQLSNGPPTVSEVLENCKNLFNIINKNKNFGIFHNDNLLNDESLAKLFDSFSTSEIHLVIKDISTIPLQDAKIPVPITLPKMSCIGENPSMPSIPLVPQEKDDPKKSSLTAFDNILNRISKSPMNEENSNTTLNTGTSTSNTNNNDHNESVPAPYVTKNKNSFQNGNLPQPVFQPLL
Assay: PBM E-score (8-mer binding enrichment) (E-score (-0.5 to 0.5)); higher = stronger / more preferred TF binding; most listed sequences are background and not binding sites
Settings: protein concentration: 200 nM; construct: GST-full length
Summary of the method: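 The E-score, a modified Wilcoxon-Mann-Whitney statistic, was computed by the Universal PBM Analysis Suite for every ungapped eight-base word pooled with its reverse complement. Scans behind it were normalised with masliner after bound GST-tagged yeast transcription factors were detected with fluorescent anti-GST. The proteins, at about 100-200 nM, had been applied to universal all-10-mer Agilent arrays made double-stranded by primer extension.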

Sequence	PBM E-score
AATCTCGG	0.0762
GATCAACA	-0.0766
CGTGAGAC	0.0393
AAACCTGG	0.0771
CACGAGCA	0.172
AAAAGCTA	-0.202
ATAAAGTA	0.0422
CACCCTCA	0.0412
AGTACCCA	0.154
CTGCTCCC	-0.0909
TCCTTAAA	-0.142
GGGTTTTA	-0.19
ACGCCCGG	-0.0553
CGGGGCTA	-0.19
AAGTCTTG	-0.0478
CTTTACTC	0.00789
CTTACCAA	0.00894
CTATACCC	-0.00776
TGTCACAA	0.127
ACTAACCT	0.126
CGGACGAG	-0.0824
AATGAATA	0.0163
GTACCGCA	0.183
CCAACACG	-0.0359
GCCTGTCC	-0.155

Sequence	PBM E-score
GATGCTGA	0.0169
ACGGAAAG	-0.0509
GACGCTAC	-0.0631
GGCCGCGA	-0.138
AGGAATTG	-0.00347
ATCCCGGG	0.0675
CCGAGTAG	0.1
CAGCTGAA	-0.124
TCTTCACA	0.0437
CGCACAAC	0.0778
ATCTCCGA	-0.0578
ATGAAGCC	0.0626
GTGATATA	0.0452
CACCTAGC	-0.116
ACTGAGTC	0.454
ACTCAAAC	0.118
GACTTACC	0.125
CTCAGCGC	-0.0842
GGGGGGTA	-0.0399
AACAATTG	0.0192
ACAACAGT	0.183
AACGGCAT	0.0401
CAGATGAC	0.0552
CTACTAGC	0.189
ACGACCCC	-0.103

Sequence	PBM E-score
GGCCCCCA	-0.317
CAGTCGAA	-0.104
AAGTTATT	0.0815
ACGCTAAA	-0.0993
GGCCATCA	-0.0669
ACCTTCAT	-0.0375
GATCTGAA	-0.0479
GGCGAGAC	0.115
ATTTTGTC	-0.233
CAGTACGC	0.00816
CAATGTGG	0.0363
ACTAGATA	0.12
ATAGTTTC	0.0533
ATAAAGTG	0.0384
CCTAGGAA	-0.00852
GATGTCTA	0.147
AATGGAAT	-0.0109
CCTTTACG	-0.0886
CTGAAGCC	-0.0475
ACTGAGGC	-0.046
AATCTATC	0.0296
AACTGGAT	0.0295
GCACGGGA	-0.146
GACCTTTA	-0.157
CTGCCCGC	0.186

Sequence	PBM E-score
CGGTTATA	-0.0181
GAAGCGTA	-0.0555
CCTTTCCA	-0.105
GCCTCTAA	-0.175
CGATAACC	0.0438
GGTCAGAC	-0.0121
ATCCATCA	0.289
CAGTGCCC	-0.0928
AATACTCC	0.035
CGTCGGGC	-0.0484
GAACTAAC	-0.0908
CTTATCCC	-0.147
GCAATGAC	0.103
CGGTAGTC	0.191
TCCCACAA	-0.0701
CCATTAAG	-0.093
AAAACATT	-0.119
AACATCTT	-0.0649
AGCATCGA	-0.0563
TGTGCGAA	-0.15
ATGCAAGA	-0.118
GAAGTCTA	-0.177
ACCAGGCG	0.109
AGGATAAT	0.106
GCTTTGGA	-0.0136

Sequence	PBM E-score
AACATCGC	0.0436
CAACTCCA	-0.134
AATTGGAT	0.06
AAACACGC	0.0242
CAAGTAGG	-0.109
GACCTCTA	-0.144
GACGATCA	-0.0372
ACGTCGCG	0.113
GTCATAAA	0.153
AGAAATAT	-0.0638
CGTCGAGA	0.026
AATAACTA	0.0164
GACGTGGC	-0.23
CGGAGTAA	0.0314
ATTAAAAT	0.0395
CTTATTCA	-0.0484
TAATAAGA	-0.159
CGGGACTC	0.204
ATCCCTGG	-0.14
GATTTCGA	-0.105
CAGAACAG	0.066
AGAAAGAC	-0.0136
GAAATGCC	-0.0678
CGCATGCA	0.144
AGGCCGTA	0.00746

Sequence	PBM E-score
AGCGGTGA	0.087
ACTAAGAG	-0.104
AGTAATAA	-0.00225
GTACTGCA	-0.00922
ACTGCTCT	-0.0446
GTGTCAGA	0.115
GACCAATC	-0.0894
TCCCTGCA	0.0302
GACGTGCC	-0.0792
AGGGGGTC	-0.311
ATGGCCTA	-0.222
ATTAACGG	0.00172
GTTGAGAA	-0.0514
CTACATCC	-0.157
CATAAGTC	0.056
CAGTACAC	0.122
AATAGTGC	-0.151
GGACGTCC	-0.12
CCCCAACC	0.192
CCCGGGAG	-0.0252
GAGGGCAA	0.0252
TACTGGCA	-0.138
CACCTAGA	-0.0265
TACTCGGA	0.126
AACCTACA	0.0211

Sequence	PBM E-score
AGGAACAC	-0.0881
ATGCGACG	0.0163
AGTCATTC	0.384
CTTACGAA	-0.115
CTATGCAG	0.0426
AAAATTGT	0.0635
AAGAGGAT	-0.0743
ACAAGATC	-0.0738
CCTGCTAA	-0.344
GCGCACCA	0.0304
AGCCGTAA	-0.0669
TCTAAACA	-0.254
GAGCAGCC	0.0642
GTATGTCA	0.117
AGGTAGTA	0.0487
CAGCCCGA	0.0547
ACGCAGCG	-0.0796
ACTCTTCC	-0.054
AACACTGG	0.103
CGATGGAA	-0.134
ACAGCCAG	0.209
ATTCATCA	0.0557
GAAGACCA	0.0605
ATAAGAGC	-0.0285
GAGTAGAA	-0.217

Sequence	PBM E-score
CGGAAGGC	-0.276
ACGCGGCC	-0.0291
ATAGAAGC	-0.0736
CGTAGAAC	-0.233
AACTCACC	0.224
ACAATCTC	0.0785
GAAAAATC	-0.0686
GACGTTTA	-0.11
CTGTCTAC	0.0767
ACTGGCCG	-0.269
AGGATGTA	0.159
GCAACGGA	0.0324
GTTTGAGA	-0.045
CAGTACCG	0.0537
TAAGCAAA	-0.242
CTTCTCCA	-0.167
CATATCGG	0.0424
AGTTCCCA	0.112
ACAGGTGA	0.176
AGGGTCCG	-0.18
CAGGACGC	-0.00404
TGTGTCAA	-0.0575
CAAATATA	0.0129
CGCGATGC	-0.241
GTCCTGGA	-0.321

Sequence	PBM E-score
AAAATCGG	-0.154
ACCTGTAT	0.0164
CCGCGTTC	0.0503
GACGATGA	0.177
CAGGGGGC	-0.14
AGCGGTAG	-0.0235
GCCCGCGA	0.139
CCATTTAA	-0.15
ATCCTTGG	0.0934
AGAAAAAA	-0.255
CACTCAGC	0.044
GCACCGAA	0.067
AATTCGAG	-0.0462
CAGGTCGA	0.132
ACGAAACC	0.164
ACTTCTCG	-0.184
AACTCGTC	0.0338
AAGTTGAG	-0.0223
GGATTCGA	-0.0664
AAGACTGT	-0.154
GGGACCGA	0.00187
GGTATTAC	0.139
CGTACTGC	0.0223
AATACCCA	0.0561
AAACAAGG	-0.191

Sequence	PBM E-score
GTAAGACA	-0.102
TATTTAAA	0.0675
AATTGCAC	0.128
AGTTCCAA	0.00985
AGGGGCAA	-0.21
AAGTGATG	0.0794
AGTGTTGA	-0.0299
CATTGGGG	-0.117
CAGGGTTC	-0.0621
ATCCATTC	-0.0383
AAAGCGAA	0.00124
AGTCTAGG	-0.134
CTAGCGTA	-0.231
AGACTAGC	-0.204
AAGTTGCT	-0.197
GTACCTAC	-0.00398
ACCTGTTA	-0.149
CTCACCGA	0.183
ACTTTTGC	-0.115
GGACACTA	-0.0253
ACACCCAA	0.197
AGTATCGA	0.147
AGGCATTG	-0.0373
CGACAGCG	-0.0743
TACGAATA	0.00744

Sequence	PBM E-score
ACAGGACA	0.129
CGCACTGA	0.0104
GCTAAGGA	-0.323
ACCCGCCG	0.197
AACTTCTG	-0.128
CCGCGTAC	-0.0241
ACCGACGC	-0.0561
CCAAGGGA	-0.197
CACGGCGA	0.158
CCTTCACA	-0.163
CTGACGGA	-0.176
ACACCAAG	0.0521
AATCGAGC	0.0319
GGTGTTCA	-0.0437
AGCAGCAT	-0.0558
CGAGCTGA	0.173
AGGTGACC	0.0821
ACTACTCC	0.206
GATGTATA	0.242
TCCTGGAA	-0.241
CCCACACC	0.12
CTAGTAAA	0.0708
ACAGGCGA	-0.0375
CGACTGCC	0.0648
ATTAAACG	-0.0977

Sequence	PBM E-score
ACAGCTCG	-0.0608
GACCTTCA	-0.111
AAGGACGT	-0.109
TATGGGGA	0.123
ACATGCCG	-0.0324
TAGCGCTA	-0.289
ATCGGTAC	0.102
ATCATAGA	0.222
CTATCGTC	-0.066
CTGGCTTC	-0.149
ACGAAAAC	-0.00389
AAAGTCGT	-0.0793
AAGCGGCT	-0.0228
ATCCCAAC	0.0332
CAAAACTG	-0.214
CCTTTGAC	-0.0472
CTCTTGGC	-0.276
CGCGTCAC	-0.0391
ATTTCAGG	0.0643
GCCATTGA	0.067
CCAACTTA	0.0119
GAAGCTGC	-0.0702
ATGTTGGC	-0.00473
AAGTGACC	-0.00246
CGAAGGCA	-0.185

Sequence	PBM E-score
AGAATGCG	-0.0687
AGCAGCCG	0.079
TCAGCCAA	0.0832
ATCTCGCA	-0.0448
AAGACTAA	0.116
ATGTCACA	0.131
TGATGGAA	0.0625
AATGTGAG	-0.0416
GTTTAAAA	-0.282
CGAAGACA	0.0682
AGGCACTG	-0.0805
CCTGCAAG	-0.245
TGACGGAA	-0.108
AGAGCCCT	-0.165
AACGCGCT	0.0547
CCACTGGC	-0.0105
GCAAATTA	-0.0987
CGGCGAGC	0.181
GCGATAAA	-0.00825
ACTGGGAG	-0.0384
AGCGGGGG	-0.0655
CAGGCGAA	-0.0345
AATAGTAA	0.0654
AAGTTGCC	-0.0563
ATGGCCCG	-0.0188

Sequence	PBM E-score
AAGGCTCA	-0.0408
TACTCTAA	-0.0831
CATTCGTA	-0.0463
AGGGGTCA	0.168
ACATCATG	0.211
GCTGACAC	0.174
CGCTTCAA	-0.169
CCTTTCGA	-0.112
GCGCTTTA	-0.241
AGTTCTTC	0.0538
ACTACACG	0.221
ATCTTTTG	-0.145
AGTTACTA	0.121
CGATCAAG	-0.206
GACTAGGA	0.135
CTGGCCTA	-0.166
GAGCAACA	-0.165
CACGGCTA	-0.116
CTATGACC	0.0448
